The record followed here is patent publication US10017542B2, “Antimicrobial peptides and methods of use thereof” (priority 2015, dated 2018).

For the assay, the system named is Porphyromonas gingivalis strains A7436 and HG405. Description: In vitro bactericidal activity screening, endpoint titration. The following applies: last concentration giving greater than two-logs reduction in CFU vs. saline control.

As for “FAFAFKAFKKAFKKFKKAFKKAFGPGRFAKKFAKKFKKFAKKFAKFAFAF [RP-433]”, the “Two-log Reduction Concentration” value is, setting by setting: (P. gingivalis A7436) 0.16 μM; (P. gingivalis HG405) 0.36 μM.

Consider FARKFLKKFKRFAKKFVRFAFAF [SEQ ID NO: 6], for which the “Two-log Reduction Concentration” value runs as follows: (P. gingivalis A7436) 1.88 μM; (P. gingivalis HG405) 2.50 μM.
